# Measured values taken from the supplement of paper PMC8728848.
# Some of the results follow.
# Key:
# Test in all cases: glycan array binding signal (z-score within array); higher = stronger binding
# Conditions in all cases: glycan notation: IUPAC condensed, linker removed
# [1] = molecular target: Gal(b1-4)GlcNAc(b1-3)Gal(b1-4)GlcNAc(b1-3)Gal(b1-4)GlcNAc(b1-3)Gal(b1-4)GlcNAc(b1-2)Man(a1-3)[Gal(b1-4)GlcNAc(b1-3)Gal(b1-4)GlcNAc(b1-3)Gal(b1-4)GlcNAc(b1-3)Gal(b1-4)GlcNAc(b1-2)Man(a1-6)]Man(b1-4)GlcNAc(b1-4)[Fuc(a1-6)]GlcNAc
# In short: (§1)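 From the Consortium for Functional Glycomics database, 3228 arrays were curated, keeping only those whose protein sequence was available. Binding is given as a within-array Z-score averaged across arrays sharing a protein sequence and across linkers. Negative Z-scores can be read as non-binding.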
# [2] = molecular target: Gal(b1-4)GlcNAc(b1-3)Gal(b1-4)GlcNAc(b1-3)Gal(b1-4)GlcNAc(b1-3)Gal(b1-4)GlcNAc(b1-2)[Gal(b1-4)GlcNAc(b1-3)Gal(b1-4)GlcNAc(b1-3)Gal(b1-4)GlcNAc(b1-3)Gal(b1-4)GlcNAc(b1-6)]Man(a1-6)[Gal(b1-4)GlcNAc(b1-3)Gal(b1-4)GlcNAc(b1-3)Gal(b1-4)GlcNAc(b1-3)Gal(b1-4)GlcNAc(b1-2)Man(a1-3)]Man(b1-4)GlcNAc(b1-4)[Fuc(a1-6)]GlcNAc
# In short: as §1
# [3] = molecular target: Gal(b1-4)GlcNAc(b1-3)Gal(b1-4)GlcNAc(b1-3)Gal(b1-4)GlcNAc(b1-3)Gal(b1-4)GlcNAc(b1-3)Gal(b1-4)GlcNAc(b1-2)Man(a1-3)[Gal(b1-4)GlcNAc(b1-3)Gal(b1-4)GlcNAc(b1-3)Gal(b1-4)GlcNAc(b1-3)Gal(b1-4)GlcNAc(b1-3)Gal(b1-4)GlcNAc(b1-2)Man(a1-6)]Man(b1-4)GlcNAc(b1-4)GlcNAc
# In short: as §1
# [4] = molecular target: Gal(b1-4)GlcNAc(b1-3)Gal(b1-4)GlcNAc(b1-3)Gal(b1-4)GlcNAc(b1-3)Gal(b1-4)GlcNAc(b1-3)Gal(b1-4)GlcNAc(b1-2)Man(a1-3)[Gal(b1-4)GlcNAc(b1-3)Gal(b1-4)GlcNAc(b1-3)Gal(b1-4)GlcNAc(b1-3)Gal(b1-4)GlcNAc(b1-3)Gal(b1-4)GlcNAc(b1-2)Man(a1-6)]Man(b1-4)GlcNAc(b1-4)[Fuc(a1-6)]GlcNAc
# In short: as §1
# [5] = molecular target: Gal(b1-4)GlcNAc(b1-3)Gal(b1-4)GlcNAc(b1-3)Gal(b1-4)GlcNAc(b1-3)Gal(b1-4)GlcNAc(b1-3)Gal(b1-4)GlcNAc(b1-2)[Gal(b1-4)GlcNAc(b1-3)Gal(b1-4)GlcNAc(b1-3)Gal(b1-4)GlcNAc(b1-3)Gal(b1-4)GlcNAc(b1-3)Gal(b1-4)GlcNAc(b1-6)]Man(a1-6)[Gal(b1-4)GlcNAc(b1-3)Gal(b1-4)GlcNAc(b1-3)Gal(b1-4)GlcNAc(b1-3)Gal(b1-4)GlcNAc(b1-3)Gal(b1-4)GlcNAc(b1-2)Man(a1-3)]Man(b1-4)GlcNAc(b1-4)[Fuc(a1-6)]GlcNAc
# In short: as §1
# [6] = molecular target: Gal(b1-4)GlcNAc(b1-3)Gal(b1-4)GlcNAc(b1-3)Gal(b1-4)GlcNAc(b1-3)Gal(b1-4)GlcNAc(b1-3)Gal(b1-4)GlcNAc(b1-3)Gal(b1-4)GlcNAc(b1-2)Man(a1-3)[Gal(b1-4)GlcNAc(b1-3)Gal(b1-4)GlcNAc(b1-3)Gal(b1-4)GlcNAc(b1-3)Gal(b1-4)GlcNAc(b1-3)Gal(b1-4)GlcNAc(b1-3)Gal(b1-4)GlcNAc(b1-2)Man(a1-6)]Man(b1-4)GlcNAc(b1-4)GlcNAc
# In short: as §1
# [7] = molecular target: Gal(b1-4)GlcNAc(b1-3)Gal(b1-4)GlcNAc(b1-3)GalNAc
# In short: as §1
# [8] = molecular target: Gal(b1-4)GlcNAc(b1-3)Gal(b1-4)GlcNAc(b1-3)[Gal(b1-4)GlcNAc(b1-3)Gal(b1-4)GlcNAc(b1-6)]GalNAc
# In short: as §1
# [9] = molecular target: Gal(b1-4)GlcNAc(b1-3)Gal(b1-4)GlcNAc(b1-6)[Gal(b1-3)]GalNAc
# In short: as §1
# [10] = molecular target: Gal(b1-4)GlcNAc(b1-3)Gal(b1-4)[Fuc(a1-3)]GlcNAc(b1-3)Gal(b1-4)[Fuc(a1-3)]GlcNAc
# In short: as §1
# [11] = molecular target: Gal(b1-4)GlcNAc(b1-3)GalNAc
# In short: as §1
# [12] = molecular target: Gal(b1-4)GlcNAc(b1-3)[Fuc(a1-3)GlcNAc(b1-6)]Gal(b1-4)Glc
# In short: as §1
# [13] = molecular target: Gal(b1-4)GlcNAc(b1-3)[Gal(b1-4)GlcNAc(b1-6)]Gal(b1-4)GlcNAc
# In short: as §1
# [14] = molecular target: Gal(b1-4)GlcNAc(b1-3)[GlcNAc(b1-6)]Gal(b1-4)GlcNAc
# In short: as §1
# [15] = molecular target: Gal(b1-4)GlcNAc(b1-6)Gal(b1-4)GlcNAc
# In short: as §1
# [16] = molecular target: Gal(b1-4)GlcNAc(b1-6)GalNAc
# In short: as §1
# [17] = molecular target: Gal(b1-4)GlcNAc(b1-6)[Gal(b1-3)]GalNAc
# In short: as §1
# [18] = molecular target: Gal(b1-4)GlcNAc(b1-6)[Gal(b1-4)GlcNAc(b1-3)]GalNAc
# In short: as §1
# Gal(b1-4)GlcNAc6P = molecular target: Gal(b1-4)GlcNAc6P
# In short: as §1
# Gal(b1-6)Gal = molecular target: Gal(b1-6)Gal
# In short: as §1
# Gal3S(b1-3)GalNAc = molecular target: Gal3S(b1-3)GalNAc
# In short: as §1
# Gal3S(b1-3)GlcNAc = molecular target: Gal3S(b1-3)GlcNAc
# In short: as §1
# [19] = molecular target: Gal3S(b1-3)[Fuc(a1-4)]GlcNAc
# In short: as §1
binder,measurement,setting,value
EULS2 M2 (Oryza sativa) (protein) MVYCRANPNYAMTARNGAVVLAPANPKDEYQHWIKDMRWSTSIKDEEGYPAFALVNKATGQAIKHSLGQSHPVRLVPYNPEVMDESVLWTESRDVGNGFRCIRMVNNIYLNFDAFHGDKYHGGVRDGTDIVLWKLCEGDSQRWKIQPYYILEQKLISEEDLNSAVDHHHHHH,glycan array binding signal (z-score),[1],0.099
same,glycan array binding signal (z-score),[2],0.194
same,glycan array binding signal (z-score),[3],2.79
same,glycan array binding signal (z-score),[4],0.066
same,glycan array binding signal (z-score),[5],-0.103
same,glycan array binding signal (z-score),[6],1.06
same,glycan array binding signal (z-score),[7],-0.414
same,glycan array binding signal (z-score),[8],-0.129
same,glycan array binding signal (z-score),[9],-0.28
same,glycan array binding signal (z-score),[10],-0.355
same,glycan array binding signal (z-score),[11],-0.649
same,glycan array binding signal (z-score),[12],-0.485
same,glycan array binding signal (z-score),[13],-0.297
same,glycan array binding signal (z-score),[14],-0.542
same,glycan array binding signal (z-score),[15],-0.692
same,glycan array binding signal (z-score),[16],-0.343
same,glycan array binding signal (z-score),[17],0.142
same,glycan array binding signal (z-score),[18],-0.205
same,glycan array binding signal (z-score),Gal(b1-4)GlcNAc6P,-0.459
same,glycan array binding signal (z-score),Gal(b1-6)Gal,0.255
same,glycan array binding signal (z-score),Gal3S(b1-3)GalNAc,-0.608
same,glycan array binding signal (z-score),Gal3S(b1-3)GlcNAc,-0.359
same,glycan array binding signal (z-score),[19],-0.012
